Our source for the cytotoxicity call and growth inhibition call values is the antibiotic and cytotoxicity screens of Wong et al. (2023).

The list shows a part of the results.

One experiment concerns HSkMC. Description: cytotoxicity call (relative viability < 0.9). As to conditions: 10 µM.
For another experiment, the system named is HepG2. Nature of the experiment: cytotoxicity call (relative viability < 0.9). As to conditions: 10 µM.
The subject of the next experiment is S. aureus RN4220. Nature of the experiment: growth inhibition call (relative growth <= 0.2). As to conditions: 50 µM.

On to `C[C@H]1CN([C@@H](C)CO)C(=O)c2cccc(NC(=O)C3CCOCC3)c2O[C@H]1CN(C)S(=O)(=O)c1ccccc1`, for which the cytotoxicity call with HSkMC and in the experiment on HepG2 was “inactive” throughout. In addition, the growth inhibition call in the experiment on S. aureus RN4220 was “inactive”.

On to `CC(C)(C)[S@@+]([O-])N1Cc2cc(C(=O)O)nc(-c3ccc(Br)cc3)c2[C@H]1CCO[Si](C)(C)C(C)(C)C`, for which the cytotoxicity call in the experiment on HSkMC and in the experiment with HepG2 was “inactive” in each case. Besides, the growth inhibition call with S. aureus RN4220 is “active”.

Regarding `C[C@H](CO)N1C[C@H](C)[C@@H](CN(C)Cc2ccc(C(=O)O)cc2)Oc2ccc(NS(=O)(=O)c3ccccc3)cc2CC1=O`, the cytotoxicity call with HSkMC and in the experiment with HepG2 was “inactive” throughout. In addition, the growth inhibition call in the experiment on S. aureus RN4220 is “inactive”.

On to `C[C@H]1CCCCO[C@@H](CN(C)C(=O)Nc2ccc(C(F)(F)F)cc2)[C@@H](C)CN([C@@H](C)CO)C(=O)c2cc(NC(=O)CCC(F)(F)F)ccc2O1`, for which the cytotoxicity call in the experiment on HSkMC and with HepG2 was “inactive” each time. The growth inhibition call in the experiment on S. aureus RN4220 was “inactive”.

Turning to `C[C@H](CO)N1C[C@H](C)[C@H](CN(C)C(=O)Nc2cccc3ccccc23)OCCCC[C@H](C)Oc2ccc(NC(=O)NC3CCCCC3)cc2C1=O`, in the experiment on HSkMC (human skeletal muscle cells), the cytotoxicity call is “inactive”. In the experiment on HepG2, the cytotoxicity call was “active”. For the same compound, in the experiment with S. aureus RN4220, the growth inhibition call is “inactive”.

Consider `C[C@@H](O)C#Cc1ccc2c(c1)O[C@H](CN(C)C)[C@@H](C)CN([C@@H](C)CO)S2(=O)=O`, for which the cytotoxicity call with HSkMC and with HepG2 was “inactive” throughout. In the experiment with S. aureus RN4220, the growth inhibition call is “inactive”.

Consider `C[C@@H]1CN([C@H](C)CO)S(=O)(=O)c2ccc(-c3cccnc3)cc2O[C@H]1CN(C)CC1CCOCC1`, for which the cytotoxicity call with HSkMC and in the experiment with HepG2 was “inactive” in each case. Besides, the growth inhibition call with S. aureus RN4220 was “inactive”.

Consider `C[C@@H]1CN([C@@H](C)CO)C(=O)c2cc(NC(=O)Nc3ccc(C(F)(F)F)cc3)ccc2O[C@H]1CN(C)S(=O)(=O)c1ccc(F)cc1`, for which the cytotoxicity call in the experiment with HSkMC and in the experiment on HepG2 was “inactive” in each case. Also, in the experiment on S. aureus RN4220, the growth inhibition call is “inactive”.

For `C[C@H](CO)N1C[C@H](C)[C@H](CN(C)Cc2ccc(Cl)c(Cl)c2)Oc2c(NC(=O)c3ccc(-c4nccs4)cc3)cccc2C1=O`, the cytotoxicity call with HSkMC and in the experiment on HepG2 was “inactive” in each case. In addition, the growth inhibition call in the experiment with S. aureus RN4220 was “inactive”.
